# Out of some 310,000 compounds screened, about 14,000 (4.5%) showed an effect of 50% or more. Effects have a minus sign here. This is one part of the list.
# Target: human ether-à-go-go-related gene (hERG) potassium channel (human, UniProt Q12809)
# Test: primary screen, population patch clamp on CHO cells stably expressing hERG
# 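Also: peak tail current of the secondary pulse compared with the same well before compound.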
# Sequence of human ether-à-go-go-related gene (hERG) potassium channel (Q12809 whole entry, looked up): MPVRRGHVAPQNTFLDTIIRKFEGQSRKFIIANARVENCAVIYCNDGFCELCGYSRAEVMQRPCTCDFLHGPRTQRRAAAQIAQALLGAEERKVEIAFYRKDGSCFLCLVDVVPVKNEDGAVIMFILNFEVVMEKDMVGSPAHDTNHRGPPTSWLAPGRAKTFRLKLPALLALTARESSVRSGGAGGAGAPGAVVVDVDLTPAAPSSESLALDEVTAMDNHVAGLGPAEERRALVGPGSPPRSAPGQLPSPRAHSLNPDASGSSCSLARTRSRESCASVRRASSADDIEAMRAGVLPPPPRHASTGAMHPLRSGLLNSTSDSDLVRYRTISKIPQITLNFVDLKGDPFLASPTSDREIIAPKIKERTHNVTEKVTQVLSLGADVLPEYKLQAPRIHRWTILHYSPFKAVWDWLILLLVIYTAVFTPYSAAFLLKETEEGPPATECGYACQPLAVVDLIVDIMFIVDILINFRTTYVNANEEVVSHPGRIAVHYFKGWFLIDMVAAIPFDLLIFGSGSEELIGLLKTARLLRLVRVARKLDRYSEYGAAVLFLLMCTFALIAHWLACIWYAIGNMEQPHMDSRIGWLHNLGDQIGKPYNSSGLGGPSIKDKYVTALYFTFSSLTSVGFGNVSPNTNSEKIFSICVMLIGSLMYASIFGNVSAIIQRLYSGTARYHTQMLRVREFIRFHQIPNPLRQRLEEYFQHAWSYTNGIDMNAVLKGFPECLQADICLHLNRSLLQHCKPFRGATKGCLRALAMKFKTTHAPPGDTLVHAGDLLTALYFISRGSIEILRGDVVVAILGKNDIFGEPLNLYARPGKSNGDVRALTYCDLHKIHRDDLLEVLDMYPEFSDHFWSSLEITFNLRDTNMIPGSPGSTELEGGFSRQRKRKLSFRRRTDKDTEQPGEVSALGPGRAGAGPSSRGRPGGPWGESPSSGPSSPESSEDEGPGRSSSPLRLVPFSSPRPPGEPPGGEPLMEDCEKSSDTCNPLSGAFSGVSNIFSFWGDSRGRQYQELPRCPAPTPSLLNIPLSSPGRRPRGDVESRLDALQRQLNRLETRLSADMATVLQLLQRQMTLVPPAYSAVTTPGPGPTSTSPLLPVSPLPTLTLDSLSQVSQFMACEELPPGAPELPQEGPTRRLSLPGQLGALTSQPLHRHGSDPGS
row,Compound,"hERG current change (%, negative = inhibition) at 10uM"
1,CCCCN(CCCC)c1nc(OC)nc(-n2nnc(C(C)=O)c2C)n1,-33.5%
2,Cc1c(C)n(CC(O)CN2C(=O)c3ccccc3S2(=O)=O)c2ccccc12 (stereo not shown),3.51%
3,Cc1cc(NC(=O)c2ccc3c(c2)OCO3)no1,22.6%
4,CCN(CC(=O)NCc1ccc(F)cc1)C(=O)CN1CCN(c2cc(Cl)ccc2C)CC1,-73.1%
5,Cc1nc([N+](=O)[O-])c(Br)n1CC(=O)c1cccc([N+](=O)[O-])c1,-34.3%
6,N#Cc1c(-c2ccccc2)nc(N2CCCCCC2)[nH]c1=O,1.47%
7,N#CCSCC(=O)Nc1ccccc1,7.73%
8,C=CCC(=O)OCC(=O)Nc1ccc(Cl)cn1,-0.252%
9,NC(=O)CC(NC(=O)c1cccc(Br)c1)c1ccc(NC2CCC2)c([N+](=O)[O-])c1 (stereo not shown),-59.8%
10,CCOC(=O)c1ccccc1NC(=O)COC(=O)CSCC(=O)Nc1cc(C)on1,-7.39%
11,COc1ccc(-c2noc(CSc3nnc(Cc4ccccc4)n3-c3ccc(Cl)cc3)n2)cc1,3.09%
12,COc1cccc(/C=C2\N=C(C3CCCCC3)OC2=O)c1OC,0.531%
13,Cc1ccccc1C(=O)Nc1ccc2c(c1)C(=O)NC2=O,8.29%
14,CCC(=O)N1CCN(c2ccc(NC(=O)c3ccc(N4CCOCC4)c([N+](=O)[O-])c3)cc2)CC1,5.66%
15,O=C(Nc1ccncc1)Nc1cc(Cl)ccc1Cl,19.1%
16,Cc1ccc(S(=O)(=O)N(C(=O)c2ccncc2)c2ccc(OC(=O)c3ccncc3)c3ccccc23)cc1,-4.48%
17,CCCC1=Nc2cc(C(=O)NCCCOC(C)C)ccc2Sc2ccccc21,-0.286%
18,CSc1nc(-c2ccccc2F)c(C#N)c(=O)n1C,-35.3%
19,O=C(N/N=C/C1CC2C=CC1C2)c1ccccc1O (stereo not shown),0.131%
20,Cn1c(CSc2ncccn2)nnc1SCC(=O)N1CCCC1,28.7%

row,Compound,"hERG current change (%, negative = inhibition) at 10uM"
1,CC(=O)N1CCN(C(=O)c2cc(-c3ccc(C)o3)nc3ccccc23)CC1,-10.1%
2,COc1cc2ccccc2cc1C(=O)N1CCCC1,7.7%
3,COc1ccc(C)cc1NC(=O)C(Sc1nncn1C)c1ccccc1 (stereo not shown),-3.91%
4,COc1ccc(NC2CCCN(C(=O)CCCn3cncn3)C2)cc1 (stereo not shown),9.05%
5,COc1ccccc1NC1(C#N)CCCCC1,12.8%
6,O=C(CCNC(=O)c1ccccc1Cl)NCCc1ccc(Cl)cc1,-5.19%
7,O=C(N/N=C/c1ccc2c(c1)OCO2)c1ccc(NC(=O)c2ccc(F)cc2)cc1,12.5%
8,Cc1cc(OCC(=O)NCCc2ccc(S(N)(=O)=O)cc2)c2c(C)cc(=O)oc2c1,16.5%
9,Cn1c2ccccc2c2nnc(SCC(=O)Nc3ccccc3F)nc21,-12.5%
10,O=C(CN(C(=O)CCC(=O)Nc1nccs1)c1ccccc1F)NCC1CCCO1 (stereo not shown),5.7%
11,Cc1sc2ncn(CC(=O)OCC(=O)NC(C)(C)C)c(=O)c2c1C,14.3%
12,CCOC(=O)c1c(C)[nH]c2c1cc(O)c1ccccc12,-1.97%
13,CCN(CC)S(=O)(=O)c1ccc(NC(=O)c2ccc(CN3CCOCC3)cc2)cc1,-0.516%
14,CC(=O)n1cc(C2C(=O)CC(C)(C)CC2=O)c2ccccc21,2.39%
15,Cc1oc(/N=C/c2ccc(Cl)cc2)c(C#N)c1C,1.21%
16,O=C(NC1CCCC1)C(c1ccsc1)N(Cc1ccco1)C(=O)Cc1cccs1 (stereo not shown),-16.1%
17,O=S(=O)(/N=C(/c1ccccc1)N1CCOCC1)c1ccc(F)cc1,23.7%
18,CC1=C(C#N)C(Nc2ccc(Cl)cn2)(C(F)(F)F)C(=O)N1 (stereo not shown),2.3%
19,C[C@H]1CCC2[C@](C)(CO)[C@@H](O)CC[C@]2(C)[C@@]12CCC(CO)(CCO)O2 (stereo partly shown),25.2%
20,CC1CCN(c2ccc(-c3cccc(NC(=O)c4ccco4)c3)nn2)CC1,-28.8%

row,Compound,"hERG current change (%, negative = inhibition) at 10uM"
1,Cc1cccc2sc(NC(=O)C3CSC4(C)CCC(=O)N34)nc12 (stereo not shown),-9.84%
2,COCCNC(=O)CSc1nc(-c2ccccc2)c(-c2ccccc2)o1,-35.9%
3,CC(=O)Nc1ccc(NC(=O)CSc2nnc(-c3cc4ccccc4o3)n2C)cc1,2.16%
4,Fc1ccc(N/N=C/c2cccnc2)c(F)c1,24.4%
5,CN(C)C1=NCCN1CC1CCCC1,16.3%
6,COCCCNC(=O)c1ccc(S(=O)(=O)c2ccc(Cl)cc2)c(NC(C)=O)c1,8.79%
7,Cc1ccc(Cl)cc1NC(=S)Nn1cnnc1,15.9%
8,CN1C(=O)/C(=C\c2ccc(N3CCCCCC3)cc2)C(=O)NC1=S,23.8%
9,CC1(C)CCN2CCC(C)(C)c3c(O)ccc1c32.CS(=O)(=O)O,6.38%
10,COc1ccc(CCNS(=O)(=O)CCNC(=O)c2ccccc2)cc1,-5.82%
11,O=C(NC1CC1)c1nc(Cn2cc([N+](=O)[O-])cn2)no1,15.9%
12,COCCNCC1C(Oc2ccc(Cl)cc2)C(=O)N1c1ccccc1C.Cl (stereo not shown),-8.44%
13,CC1CCCC(NC(=S)NC(=O)c2ccccc2Br)C1C (stereo not shown),8.97%
14,Cc1ccc(-c2cnc3c(Cl)c(C)nn3c2)cc1,9.33%
15,COc1ccc(/C=C2/SC(=S)N(c3ccc(S(=O)(=O)Nc4nccs4)cc3)C2=O)cc1,13%
16,CCOc1ccccc1-c1nc(-c2ccc(NC(=O)Cc3ccc(OC)cc3)cc2)no1,16.8%
17,COC(=O)c1cc(=O)nc2sc3ccccc3n12,5.1%
18,NC(=O)[C@@H]1CCNc2c(I)cc([N+](=O)[O-])cc2C(=O)N[C@@H](CCC(=O)O)C(=O)N[C@@H](CO)C(=O)N1,25%
